{"source": "patent US9777070B2", "about": "“Anti-PTK7 antibody-drug conjugates” (Pfizer Inc., priority 2014, dated 2017)", "key": {"human PTK7": {"molecular_target": "T1, human PTK7 (Homo sapiens, UniProt Q13308)", "T1 sequence (Q13308 31-1070)": "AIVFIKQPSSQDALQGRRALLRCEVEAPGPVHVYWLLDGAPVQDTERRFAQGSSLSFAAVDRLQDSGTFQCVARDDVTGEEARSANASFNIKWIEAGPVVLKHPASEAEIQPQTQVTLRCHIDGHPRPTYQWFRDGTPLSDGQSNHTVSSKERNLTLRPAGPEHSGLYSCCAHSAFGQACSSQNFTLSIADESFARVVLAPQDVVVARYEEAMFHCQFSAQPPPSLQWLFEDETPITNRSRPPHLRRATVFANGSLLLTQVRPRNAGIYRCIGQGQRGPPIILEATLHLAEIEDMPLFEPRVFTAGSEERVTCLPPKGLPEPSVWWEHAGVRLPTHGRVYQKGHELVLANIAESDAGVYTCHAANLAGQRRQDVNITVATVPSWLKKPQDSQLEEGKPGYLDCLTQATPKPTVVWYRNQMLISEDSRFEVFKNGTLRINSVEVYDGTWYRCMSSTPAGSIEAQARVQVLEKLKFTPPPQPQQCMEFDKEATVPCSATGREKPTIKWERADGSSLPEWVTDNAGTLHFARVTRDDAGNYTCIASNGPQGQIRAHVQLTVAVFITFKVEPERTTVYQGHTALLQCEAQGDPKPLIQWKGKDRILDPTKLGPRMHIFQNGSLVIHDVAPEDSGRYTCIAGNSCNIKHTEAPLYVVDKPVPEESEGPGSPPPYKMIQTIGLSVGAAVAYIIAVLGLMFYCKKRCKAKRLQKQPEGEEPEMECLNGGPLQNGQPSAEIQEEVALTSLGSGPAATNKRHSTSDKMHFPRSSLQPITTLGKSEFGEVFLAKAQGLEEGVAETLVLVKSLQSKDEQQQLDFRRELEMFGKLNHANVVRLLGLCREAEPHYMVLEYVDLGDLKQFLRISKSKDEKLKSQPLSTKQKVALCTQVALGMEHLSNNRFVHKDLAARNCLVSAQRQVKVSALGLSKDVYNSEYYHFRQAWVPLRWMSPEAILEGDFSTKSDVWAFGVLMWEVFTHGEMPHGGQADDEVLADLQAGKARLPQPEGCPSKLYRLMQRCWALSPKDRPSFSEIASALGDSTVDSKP", "experiment": "SPR (Biacore 2000) of chimeric and humanized clone 24 mAbs", "assay_type": "binding", "conditions": "recombinant human PTK7 ectodomain; Kd=Koff/Kon", "experimental": "A comparison of the chimeric and humanized clone 24 mAbs was determined by SPR using a Biacore™ 2000 (GE Healthcare). An antihuman antibody capture kit was used to immobilize capture mAbs on a CM5 biosensor chip. Prior to each antigen injection cycle, humanized mAb at a concentration of 2 μg/mL was captured on the surface with a contact time of 2 minutes and a flow rate of 5 μL/minute. The captured mAb loading from baseline was constant at 80-120 response units. […] Following each cycle, the anti-human capture surface was regenerated with 30 seconds contact time of 3M MgCl2 at 10 μL/minute.\nBiacore™ data was processed by initially subtracting a control IgG surface from the specific mAb binding surface. The response data was then truncated to the association and dissociation phase. The resulting response curves with three different antigen concentrations were used to fit a 1:1 Langmuir binding model and to generate an apparent affinity by the calculated Kon and Koff kinetics constants, with equilibrium dissociation constant defined as Kd=Koff/Kon. All data analysis steps were completed in BiaEvaluation Software 3.1 (GE Healthcare)."}, "[1]": {"tested_on": "small cell lung cancer-64 (LU64) PDX", "experiment": "In vivo efficacy, PDX tumor growth", "parameters": "species or system human tumor in NOD/SCID mice", "text": "The effects of anti-PTK7 antibody-drug conjugates were further evaluated on the in vivo growth of human tumor patient-derived xenografts (PDX). Primary tumor resection samples were procured from clinical sites following Institutional Review Board for the Protection of Human Subjects approval and in accordance with HIPAA regulations. Tumor fragments were stored and shipped in Hypothermasol (Biolife Solutions) on ice and were embedded in Matrigel (BD) containing a proprietary mix of growth factors and implanted subcutaneously into the mammary fatpad of female NOD/SCID mice within 24 hours of resection. Mice were monitored for health status daily and for tumor growth initially by visual inspection twice per week. Once the tumors were palpable, measurements of tumor volume began to track tumor growth and estimate cell doubling time. Tumor volume was estimated using the equation V=(A*B^2)/2 where A is the long axis and B is the short axis. When tumors reached a volume of 500 mm^3 to 1,500 mm^3, they were harvested for study and for re-transplant as a patient-derived xenograft (PDX). Depending on the line, mechanical and/or chemical dissociation can be used to separate the individual cells for passage. Live cells were inoculated into naïve animals with 10,000 to 50,000 cells per animals\nFor efficacy studies, tumors were harvested from passaging studies and cells were dissociated into single cell suspension. Preparations were counted for live cells using Trypan blue exclusion and 10,000 to 50,000 cells were inoculated per mouse in Matrigel. […] Tumor growth was initially followed by palpability with measurements beginning once tumor volumes reached about 30 mm^3. Studies were randomized based on tumor size once a cohort of tumor-bearing mice reached 140 mm^3 to 180 mm^3. Animals were dosed by intraperitoneal injection twice a week for two weeks (q4dx4). Study groups were followed until individual mice or entire group tumor measurements reached 1200 mm^3 when sacrifice was indicated in accordance with IACUC protocol. For selected dosing studies, pharmacokinetic submandibular bleeds were performed at 2 hours, 36 hours and 72 hours. A volume of 10 μL of blood was immediately pipetted into 90 μL of HBS-P (GE Healthcare). Samples were stored at −80° C. prior to analysis. For each tumor measurement the tumor volume±standard error of the mean (SEM) is provided. GT=Group Terminated due to large tumor size."}}, "data": [{"molecule": "hu24 (antibody) heavy: QVQLVQSGPEVKKPGASVKVSCKASGYTFTDYAVHWVRQAPGKRLEWIGVISTYNDYTYNNQDFKGRVTMTRDTSASTAYMELSRLRSEDTAVYYCARGNSYFYALDYWGQGTSVTVSS[letters of human IgG1 constant region omitted] light: EIVLTQSPATLSLSPGERATLSCRASESVDSYGKSFMHWYQQKPGQAPRLLIYRASNLESGIPARFSGSGSGTDFTLTISSLEPEDFAVYYCQQSNEDPWTFGGGTKLEIKRTVAAPSVFIFPPSDEQLKSGTASVVCLLNNFYPREAKVQWKVDNALQSGNSQESVTEQDSKDSTYSLSSTLTLSKADYEKHKVYACEVTHQGLSSPVTKSFNRGEC", "values": [{"measurement": "Kd", "setting": "human PTK7", "value": 1.2, "unit": "nM"}]}, {"molecule": "hu24-vc0101: hu24 conjugated through cysteines to vc0101 linker-payload; average DAR approximately 4 (conjugate) heavy: QVQLVQSGPEVKKPGASVKVSCKASGYTFTDYAVHWVRQAPGKRLEWIGVISTYNDYTYNNQDFKGRVTMTRDTSASTAYMELSRLRSEDTAVYYCARGNSYFYALDYWGQGTSVTVSS[letters of human IgG1 constant region omitted] light: EIVLTQSPATLSLSPGERATLSCRASESVDSYGKSFMHWYQQKPGQAPRLLIYRASNLESGIPARFSGSGSGTDFTLTISSLEPEDFAVYYCQQSNEDPWTFGGGTKLEIKRTVAAPSVFIFPPSDEQLKSGTASVVCLLNNFYPREAKVQWKVDNALQSGNSQESVTEQDSKDSTYSLSSTLTLSKADYEKHKVYACEVTHQGLSSPVTKSFNRGEC", "values": [{"measurement": "tumor volume ± SEM", "setting": "[1]; 3 mg/kg, Day 0", "value": "166 ± 15", "unit": "mm^3"}, {"measurement": "tumor volume ± SEM", "setting": "[1]; 3 mg/kg, Day 7", "value": "252 ± 11", "unit": "mm^3"}, {"measurement": "tumor volume ± SEM", "setting": "[1]; 3 mg/kg, Day 14", "value": "310 ± 38", "unit": "mm^3"}, {"measurement": "tumor volume ± SEM", "setting": "[1]; 3 mg/kg, Day 21", "value": "389 ± 35", "unit": "mm^3"}, {"measurement": "tumor volume ± SEM", "setting": "[1]; 3 mg/kg, Day 28", "value": "537 ± 67", "unit": "mm^3"}, {"measurement": "tumor volume ± SEM", "setting": "[1]; 3 mg/kg, Day 35", "value": "651 ± 70", "unit": "mm^3"}, {"measurement": "tumor volume ± SEM", "setting": "[1]; 3 mg/kg, Day 42", "value": "932 ± 128", "unit": "mm^3"}, {"measurement": "tumor volume ± SEM", "setting": "[1]; 10 mg/kg, Day 0, Table 27", "value": "178 ± 19", "unit": "mm^3"}, {"measurement": "tumor volume ± SEM", "setting": "[1]; 10 mg/kg, Day 7, Table 27", "value": "348 ± 32", "unit": "mm^3"}, {"measurement": "tumor volume ± SEM", "setting": "[1]; 10 mg/kg, Day 14, Table 27", "value": "391 ± 42", "unit": "mm^3"}, {"measurement": "tumor volume ± SEM", "setting": "[1]; 10 mg/kg, Day 21, Table 27", "value": "377 ± 66", "unit": "mm^3"}, {"measurement": "tumor volume ± SEM", "setting": "[1]; 10 mg/kg, Day 28, Table 27", "value": "500 ± 76", "unit": "mm^3"}, {"measurement": "tumor volume ± SEM", "setting": "[1]; 10 mg/kg, Day 35, Table 27", "value": "618 ± 113", "unit": "mm^3"}, {"measurement": "tumor volume ± SEM", "setting": "[1]; 10 mg/kg, Day 42, Table 27", "value": "773 ± 141", "unit": "mm^3"}, {"measurement": "tumor volume ± SEM", "setting": "[1]; 10 mg/kg, Day 49, Table 27", "value": "838 ± 171", "unit": "mm^3"}, {"measurement": "tumor volume ± SEM", "setting": "[1]; 10 mg/kg, Day 56, Table 27", "value": "1054 ± 185", "unit": "mm^3"}, {"measurement": "tumor volume ± SEM", "setting": "[1]; 10 mg/kg, Day 63, Table 27", "value": "1367 ± 290", "unit": "mm^3"}]}]}
